# Assay results published in the supplement of paper PMC10502849.
# Counter-ions that a name gives are not always drawn. The list shows a part of the results. Repeats are few or missing, and single values can be far off.
# Assays:
# [1] = system: H9 teratoma-derived LAM model cells, TSC2-/-; assay: percent SyTOX+ dead cells; higher = more cytotoxic; settings: 5 µM, treatment time 72 h, culture: 3D hyaluronic acid hydrogel
# [2] = system: H9 teratoma-derived LAM model cells, WT; assay: percent SyTOX+ dead cells; higher = more cytotoxic; settings: 5 µM, treatment time 72 h, culture: 3D hyaluronic acid hydrogel, genotype: WT
# [3] = system: H9 teratoma-derived LAM model cells, TSC2-/-; assay: percent of cells invaded past median invasion distance of vehicle control; LAM is lymphangioleiomyomatosis; the cells come from teratomas of the human stem cell line H9; higher = more invasion; extreme values may be limits of the assay; settings: 5 µM, treatment time 72 h, culture: 3D hyaluronic acid hydrogel
# [4] = system: H9 teratoma-derived LAM model cells, WT; assay: as above; settings: 5 µM, treatment time 72 h, culture: 3D hyaluronic acid hydrogel, genotype: WT
# 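Wherever percent SyTOX+ dead cells is given: cells seeded atop a hyaluronic acid gel crosslinked via MMP-cleavable peptides, containing vitronectin peptides and methylcellulose, imaged live by high-content microscopy with automated analysis, one technical replicate per compound.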
# 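Wherever percent of cells invaded past median invasion distance of vehicle control is given: live cells imaged by high content microscopy and scored with in-house automated image analysis, one technical replicate per compound in each genotype and rapamycin condition.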
SMILES,percent SyTOX+ dead cells ([1]; rapamycin 0 nM),percent SyTOX+ dead cells ([1]; rapamycin 20 nM),percent SyTOX+ dead cells ([2]; rapamycin 0 nM),percent SyTOX+ dead cells ([2]; rapamycin 20 nM),percent ([3]; rapamycin 0 nM),percent ([3]; rapamycin 20 nM),percent ([4]; rapamycin 0 nM),percent ([4]; rapamycin 20 nM)
FC(F)(F)c1ccc(/C=C/c2nc(COc3ccc(CCCCn4ccnn4)cc3)co2)cc1,7.73%,22.6%,11%,30.8%,38.6%,37.9%,7.33%,20.8%
CCOc1cc(/C=C(\C#N)C(N)=O)cc(CSc2ccccc2)c1O,8.39%,3.32%,9.9%,5.53%,71%,99%,38%,79.7%
CC(=O)Nc1ccc([C@H](C)C(=O)Nc2ncc(C(C)C)s2)cc1,46.7%,23.8%,54.3%,43.2%,5.13%,23.8%,1.64%,7.2%
COc1nccc(-c2c(-c3ccc(F)cc3)ncn2C2CCC(O)CC2)n1 (centres undefined),6.6%,14.1%,12.2%,6.67%,25%,1.56%,8.14%,9.33%
Cc1nc2sccn2c(=O)c1CCN1CCC(=C(c2ccccc2)c2ccc(F)cc2)CC1,3.68%,10.3%,7.35%,11.8%,17.1%,11.6%,38.4%,22.3%
"N#CC1(c2ccc(NC(=O)c3cccnc3NCc3ccncc3)cc2)CCCC1 [Apatinib mesylate, YN-968D1]",3.08%,5.43%,16.3%,13.1%,34.6%,51.9%,17.8%,29.7%
Cc1ccc(S(=O)(=O)Nc2nc3ccccc3nc2Nc2ccc3nsnc3c2)cc1,7.27%,10.8%,13.9%,8.17%,29.8%,17.7%,33.6%,38%
NC(=O)C1CCCc2c1[nH]c1ccc(Cl)cc21 (centres undefined),4.46%,22.6%,16.6%,19.3%,22.6%,19.2%,17%,30.7%
COc1nccc(-c2c(-c3ccc(F)cc3)ncn2C2CCNCC2)n1,7.07%,3.9%,9.58%,6.42%,37.7%,21.4%,11.1%,19%
Oc1cccc(-c2nc(N3CCOCC3)c3oc4ncccc4c3n2)c1,14.8%,13.2%,27.4%,20.7%,7.81%,29.7%,18.6%,16.4%
COc1cc(OC2CCN(C)CC2)ccc1Nc1ncc2c(n1)n(C1CCCC1)c(=O)n2C,13.1%,21.6%,28.3%,36.6%,61.6%,56.4%,34.5%,15.7%
"CC(C)n1cnc2c(Nc3cccc(Cl)c3)nc(NCCO)nc21 [Compound 52, NG-52]",22.6%,19.3%,23.4%,29%,50.6%,21.1%,1.61%,4.84%
"Cc1cc(Nc2cc(N3CCN(C)CC3)nc(Sc3ccc(NC(=O)C4CC4)cc3)n2)n[nH]1 [VX-680, MK-0457, Tozasertib, VX6]",16.4%,13.8%,13.6%,8.91%,7.87%,46%,1.81%,3.47%
O=C(Nc1cccc2cccnc12)c1ccc(N2C(=O)[C@@H]3[C@H](C2=O)[C@H]2C=C[C@@H]3C2)cc1,5.04%,9.12%,5.94%,9.22%,51%,43.4%,65.1%,70.6%
Cc1ccc(NC(=O)c2ccc(CN3CCN(C)CC3)cc2)cc1Nc1nccc(-c2cccnc2)n1,12.4%,15.5%,13.6%,13.5%,45.7%,24.9%,29%,19.6%
Cc1cc(Nc2nc(N[C@@H](C)c3ncc(F)cn3)ncc2Cl)[nH]n1,59.3%,46.8%,78.1%,79.4%,17.6%,22.1%,0%,0%
"Ic1cccc(CSc2nnc(-c3ccncc3)o2)c1 [2-Thio(3-iodobenzyl)-5-(1-pyridyl)-[1,3,4]-oxadiazole]",11.2%,12.4%,6.61%,5.16%,18.4%,52.2%,44.2%,15.5%
O=c1cc(N2CCOCC2)oc2c(-c3ccccc3)cccc12,12.6%,11%,19.2%,20.2%,42%,17.6%,22.6%,20.2%
CC(C)c1cnn2c(NCc3ccccc3)cc(NCCCCCCN)nc12 [BS-181 hydrochloride],4.44%,0.74%,14.4%,9.82%,82.9%,84.9%,74.2%,46.3%
Cc1nc(NC(=O)N2CCC[C@H]2C(N)=O)sc1-c1ccnc(C(C)(C)C(F)(F)F)c1,8.59%,12.7%,25.6%,26.8%,43%,20.4%,60.6%,55.3%
NC(=O)c1ccc(-c2nc(-c3ccccn3)c(-c3ccc4c(c3)OCO4)[nH]2)cc1,14.9%,18.8%,17.6%,13.9%,58.5%,26%,28%,29.2%
"CCOC(=O)c1ccc(OC(=O)CCCCCN=C(N)N)cc1 [Gabexate mesylate, FOY]",34.2%,39.5%,37.6%,33%,35.5%,29.3%,41.8%,60.2%
O=C(NN=Cc1c(O)ccc2ccccc12)c1ccncc1,7.14%,16.3%,7.76%,11.4%,55.8%,24%,9.13%,7.74%
